From the BET-seq Pho4 binding data (Le et al. 2018)
The other results are listed elsewhere or left out. These are noisy estimates, calculated here from bound and input reads.

target: T1, Pho4 (S. cerevisiae) (UniProt P07270); assay: relative binding free energy (BET-seq); higher = weaker binding; details: reference: library average
T1 sequence: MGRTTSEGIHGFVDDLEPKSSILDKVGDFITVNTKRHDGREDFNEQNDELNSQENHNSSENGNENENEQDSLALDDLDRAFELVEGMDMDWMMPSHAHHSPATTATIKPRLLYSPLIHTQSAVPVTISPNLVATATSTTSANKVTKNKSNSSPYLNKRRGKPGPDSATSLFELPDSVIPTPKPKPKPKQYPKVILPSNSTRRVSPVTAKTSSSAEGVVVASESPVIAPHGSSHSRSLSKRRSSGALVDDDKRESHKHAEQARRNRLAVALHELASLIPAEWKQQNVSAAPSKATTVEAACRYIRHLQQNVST

Sequence	relative binding free energy [kcal/mol]
TTGTACACGTGTCGGC	0.22
TGCTCCACGTGGGAGG	0.06
CTGTACACGTGTCGGG	0.26
CAAGACACGTGTGGTG	-0.07
TTTGTCACGTGAGTGT	0.29
TATGTCACGTGGGAGC	-0.04
GCAGGCACGTGGGTTA	-0.27
TGGTTCACGTGGGTAT	0.21
TTAGCCACGTGATGTG	-0.01
TACAGCACGTGGGAGT	-0.22
TTAGCCACGTGTATAT	0.04
AGTGACACGTGTGGTT	0.07
TTAGACACGTGGCGGG	-0.06
GCCGTCACGTGTGGTT	0.29
TAAGTCACGTGGATTG	0.06
TTGGGCACGTGCTTTA	-0.17
ATATTCACGTGTGTCG	0.22
GTAAACACGTGATGTG	0.16
TTGATCACGTGTTTTC	0.03
ACCGGCACGTGTAGTG	0.01
GCAAACACGTGGGGTT	-0.14
GTCGTCACGTGGCGTG	0.04
GAGGACACGTGAGCGG	0.17
TTAGGCACGTGGAGCT	-0.12
TAATTCACGTGGGCTA	0.16
CAGGTCACGTGCGTTT	0.01

Sequence	relative binding free energy [kcal/mol]
GGATCCACGTGTGTGT	0.17
ATTCGCACGTGGATAT	0.05
AGCGGCACGTGAGGTT	0.2
AGTTGCACGTGGTTGT	-0.07
CATGCCACGTGAGGGG	0.04
AATAGCACGTGATAGT	-0.05
TTCTCCACGTGGGTTA	-0.03
GTCAACACGTGTTTTT	0.13
CTTTTCACGTGTTGCT	0.16
TCCATCACGTGGGGGG	-0.13
TATGTCACGTGCATAG	0.05
TTATTCACGTGTTGTG	0.27
GGTGGCACGTGACAGT	0.05
CTTTGCACGTGATGTT	0.05
TTTACCACGTGGAGTG	-0.1
GGGAGCACGTGAGGCT	0.09
TGTTACACGTGCATGT	0.1
CAGGTCACGTGGTTAA	0.2
TCGTTCACGTGTTCTG	0.49
GCCGGCACGTGTGTTT	0.01
TGGGTCACGTGCTAGT	-0.01
CATTGCACGTGGGTAA	-0.06
TGTTCCACGTGGCGTT	0.03
TGGGGCACGTGTCATT	-0.22
GAGGTCACGTGCGGTC	0.06
AATGACACGTGTGTGC	0

Sequence	relative binding free energy [kcal/mol]
GTAGACACGTGGGGAC	-0.06
GATATCACGTGTCGGG	0.2
AATGACACGTGGTCGG	0.01
TTTGACACGTGTGATT	0.11
AAATGCACGTGAGTAT	0.22
AGGGACACGTGAAATG	0.17
CGATACACGTGAAGGT	0.63
GACTGCACGTGGGTTA	-0.16
TGTTACACGTGGGACT	-0.04
TGTTCCACGTGTGTTT	0.07
TTAGGCACGTGCTCTG	-0.23
TAGTCCACGTGATGTA	0.31
GTGAACACGTGGATTT	0.01
GGCATCACGTGAGGTG	0.22
AATGGCACGTGGGATA	-0.06
GGAGTCACGTGTCTTG	0.14
TGGGCCACGTGGGTTA	-0.09
CGAGGCACGTGTAGGT	-0.05
GGGACCACGTGGCGGG	-0.03
GTGGTCACGTGTAGCA	0.13
GGGTCCACGTGATAAG	0.4
GTAGACACGTGTTAGA	0.08
ATTTACACGTGGGATG	0
AAGAACACGTGATGGT	0.17
TCTGTCACGTGGTGCT	0.1
TTTACCACGTGAGTTG	0.18

Sequence	relative binding free energy [kcal/mol]
TGGCGCACGTGCGTGT	-0.12
GCTGACACGTGTAGTG	0.04
GAGTACACGTGGAGTA	0.07
ATAAACACGTGATGTT	0.09
GATTGCACGTGAGGGG	0.37
TAGTGCACGTGAGAGC	0.35
CGGGGCACGTGTTCTG	-0.24
AGTTCCACGTGGGGAG	-0.08
CGTTTCACGTGATAGT	0.3
AGAGTCACGTGGAATG	0.22
CTCGGCACGTGGGGAA	-0.18
TTCATCACGTGGTTGA	0.12
AAGGGCACGTGTCGTG	-0.08
GGGAACACGTGGATGA	0.18
ATTTTCACGTGAGTGT	0.43
GTTAGCACGTGGGAAT	-0.07
GGGTTCACGTGAACGT	0.46
GTTTTCACGTGCGTCG	0.21
GGGCTCACGTGAGGTG	0.36
TTATGCACGTGGGAGA	-0.19
GGTAACACGTGATGTA	0.15
ATTGGCACGTGCAATG	-0.23
TGAGGCACGTGGAGGC	-0.08
TGTTACACGTGTCCGT	0.13
GCTGTCACGTGGGGCT	0.03
GGTGACACGTGTGAGG	0.04

Sequence	relative binding free energy [kcal/mol]
TGGAGCACGTGTGTCA	-0.13
GGTTGCACGTGTAATT	0.14
TGCTGCACGTGTGATT	0
TATGGCACGTGCAGGT	-0.03
TAGGGCACGTGGCCGG	-0.24
TGGGTCACGTGGAACA	0.16
TTGCTCACGTGGGAGA	0.21
TAGGACACGTGTGGGA	0.05
GGTAGCACGTGTACAG	-0.05
ATGCACACGTGTAGTG	0.01
TTAGTCACGTGCAGGT	-0.01
GTTACCACGTGATGGT	0.11
CTCAGCACGTGTGGTG	-0.07
AGGTCCACGTGGTCGG	-0.15
TAGAGCACGTGTCTTT	-0.03
TTGCGCACGTGGGTCG	-0.36
AGTTTCACGTGAACTG	0.33
GGGGTCACGTGCCGGG	0.12
ATGTTCACGTGCTGTT	0.18
TTTGACACGTGGTGTC	0.02
GGGCTCACGTGATAAT	0.5
GGTTACACGTGGAGTT	0.27
TTAGACACGTGATGGT	0.1
GTTTTCACGTGCTTGT	0.25
TTTTCCACGTGGGCTT	0
GTTGACACGTGGTGTT	0

Sequence	relative binding free energy [kcal/mol]
ACTTACACGTGTTTTG	0.19
TCAGGCACGTGGGCGA	-0.11
GGTGGCACGTGTTGTT	0.04
CTGTGCACGTGCTAGG	-0.06
AATAGCACGTGGGGCA	-0.29
TAATTCACGTGGTTTT	0.22
AGGCGCACGTGAGTTG	0.11
GTTATCACGTGATAGC	0.35
GGTGACACGTGATTAG	0.07
TGGATCACGTGTACGG	0.27
CAGGTCACGTGTGTTG	0.14
CTGGACACGTGGGGGC	-0.05
TTTTTCACGTGACCTG	0.37
AATGGCACGTGTTCTT	-0.15
GGTGTCACGTGTACTT	0.24
TTTTTCACGTGAGGCG	0.43
GGAGGCACGTGTGCAT	0.01
GCGTTCACGTGTTTAT	0.39
GGACTCACGTGTGTAG	0.29
GAGGTCACGTGTATAT	0.25
GGGTTCACGTGAGTCT	0.33
GTTTGCACGTGAGCGG	0.19
ATTAGCACGTGAGTAT	0.1
TTGAGCACGTGATGGA	0.02
ATGTGCACGTGGCGAT	-0.07
TAATTCACGTGGCTTG	0.21

Sequence	relative binding free energy [kcal/mol]
GTAATCACGTGATGGG	0.32
GGTAACACGTGTGGTC	0.16
AGTCTCACGTGTGGGA	0.19
GGTGCCACGTGTAGCG	0.04
CATTTCACGTGGAAGG	0.26
CCTTTCACGTGTTGTT	0.3
GGCATCACGTGTGGTT	0.3
GTGGACACGTGGGCGG	-0.17
TGTTTCACGTGTTGCG	0.21
GTATACACGTGGGTGG	0.02
GAGGTCACGTGGTAAT	0.09
GTTGGCACGTGTGGCA	0.08
CTAGTCACGTGGTGCG	-0.02
TGAGGCACGTGGTGAA	-0.24
TAGAACACGTGGGAGG	-0.06
AGTTTCACGTGTCTCG	0.3
TCTTTCACGTGCGTTG	0.16
GCTGGCACGTGGGAGC	-0.14
GGCCGCACGTGTGTTA	0.06
TGGATCACGTGTTGTC	0.14
TCGTTCACGTGTTAGG	0.35
TTTAGCACGTGGTAAG	-0.05
TGCATCACGTGTATGT	-0.06
TATAGCACGTGGTAGA	-0.22
TGACTCACGTGTTAGT	0.24
CGTTTCACGTGGGAAG	0.24

Sequence	relative binding free energy [kcal/mol]
AGTGTCACGTGAAAGG	0.29
GGTAGCACGTGATGTA	0.06
AGTACCACGTGGTTGA	-0.08
TCTTTCACGTGTCATG	0.23
AGGGTCACGTGGGAGG	0.03
GGTAGCACGTGGGTGC	-0.2
TCGGTCACGTGCGAGG	0.17
TGTGTCACGTGGCTAG	-0.01
TTGTGCACGTGGGGCA	-0.09
TGTGCCACGTGGGGGG	-0.22
GGTTGCACGTGAGTAG	0.34
AGCGGCACGTGTGACG	0.07
ATTAGCACGTGCGAGT	-0.07
CGTGACACGTGATAAG	0.26
TGGAACACGTGGGGAG	-0.1
TTTTTCACGTGGTATA	0.19
GGAATCACGTGAGGAT	0.44
GATGTCACGTGGTTCG	0.14
TGCCGCACGTGTTGGG	-0.08
ACCGGCACGTGGAGGG	-0.13
CGGATCACGTGTGTCG	0.15
CTTTGCACGTGTTTCT	0
ATACACACGTGGTGGT	-0.13
AATATCACGTGGGTGT	0.07
CGTTTCACGTGTTCGT	0.24
AGAGACACGTGTGTAG	0.13

Sequence	relative binding free energy [kcal/mol]
TTATCCACGTGATGTG	0.09
ATGAACACGTGTATTT	0.07
GTGTGCACGTGGTCAG	-0.12
TTATTCACGTGGTTGA	0.16
TGCCTCACGTGAGAGG	0.43
ATGTTCACGTGGGGTG	0.12
AGGCGCACGTGATTTT	0.1
TTTGCCACGTGGTCAG	-0.1
GTTACCACGTGGGAGT	-0.06
TCACTCACGTGAGGGG	0.29
ATAGTCACGTGTGCTT	0.08
ATTTTCACGTGTTGTC	0.29
CTGTGCACGTGAGGGG	0.2
TGAATCACGTGATAGG	0.27
GTTCGCACGTGTTCGT	0.04
TAGGACACGTGATGGA	0.15
GCAGTCACGTGTGAGT	0.27
TTCTTCACGTGAGCGT	0.3
TTTTTCACGTGTCTCG	0.3
TTTGGCACGTGAATCA	-0.02
GCGTTCACGTGGTCTG	0.22
AGGTGCACGTGATTAA	-0.12
